Assay results reported in PubChem BioAssay AID463173 (ICCB-Longwood Screening Facility, Harvard Medical School, 2010).
In all, about 52,000 compounds went through this assay and about 1,700 (3.3%) were called active. No stated cut-off is given here; in the data, active means survival mostly below about 52% (no sharp cut-off); inactive means mostly above about 56%. Some of the results follow.

test system: Wild type; assay: growth inhibition of S. aureus wild type versus tarO mutant, primary screen, teichoic acid synthesis inhibitors, RN4220, OD600 (AID 463173); conditions: S. aureus RN4220 wild type/DeltatarO growth, OD600, 18 h, stronger effect = lower value, screened at 18.75 µg/mL (by protocol)

| SMILES | survival |
| --- | --- |
| CCN(CC)c1ccc(NC(=O)CCCN2C(=O)C(c3ccccc3)Oc3cccnc32)c(C)c1 (stereo not given) | inactive: 87% |
| CCCCC1C(=O)NC(=Nc2nc(C)c3ccc(OC)cc3n2)NC1=O (stereo not given) | inactive: 103% |
| Cc1ccc(N2CC(C(=O)Nc3ccc(N(C)C)cc3)CC2=O)cc1Cl (stereo not given) | inactive: 69% |
| CSc1ccc(-c2nnc(NC(=O)c3ccc4c(c3)OCCO4)o2)cc1 | inactive: 87% |
| Fc1ccccc1N1CCN(c2nc3ccccc3c3nc(-c4ccccc4)nn23)CC1 | inactive: 79% |
| CC(=O)Nc1ccc(OCC(O)CN2CCN(c3ccc(C)c(Cl)c3)CC2)cc1 (stereo not given) | inactive: 98% |
| O=C1CSC(=O)N1CCc1ccccc1 | inactive: 101% |
| CSc1nc(NC(N)=S)nc(NC(C)C)n1 | inactive: 95% |
| CC(=O)Nc1cccc(-n2cc3c(c2-c2ccccc2Cl)c(=O)n(C)c(=O)n3C)c1 | inactive: 90% |
| O=C(CCn1ccc2cc(S(=O)(=O)N3CCCC3)ccc21)NCc1ccccc1Br | inactive: 72% |
| Cc1cccc2cc(CN(C(=O)C3CC3)C3CCCC3)c3nnnn3c12 | inactive: 99% |
| CCOC(=O)CNc1nc(C(C)(C)C)nc2c1nnn2Cc1ccccc1 | inactive: 114% |
| CC(C)Oc1ccc(C(=O)Nc2c(C(=O)Nc3cccc(F)c3)oc3ccccc23)cc1 | inactive: 79% |
| COc1ccc(N2C(S)=C(C#N)C(=O)NC2c2ccccc2)cc1 (stereo not given) | inactive: 124% |
| COc1ccc(C)cc1Nc1cc(C)nc(C)n1 | inactive: 83% |
| O=C(CN1C(=O)c2cccnc2Oc2ccc(Cl)cc21)Nc1cccc(C(F)(F)F)c1 | inactive: 64% |
| COc1cc(NC(=O)CSc2ccc(-c3ccccn3)nn2)cc(OC)c1 | inactive: 90% |
| COc1nc(-c2ccccc2)nc(C)c1CC(=O)O | inactive: 101% |
| O=C(Cc1ccc(-c2ccccc2)cc1)NCCS(=O)(=O)N1CCN(c2ccccc2)CC1 | inactive: 127% |
| O=C(CSc1nc(-c2ccc(F)cc2)[nH]c1-c1ccc(F)cc1)Nc1ccc2c(c1)OCO2 | inactive: 120% |
| COc1ccc(-c2cc(C(F)(F)F)nc(SCC(=O)NCC(C)C)n2)cc1OC | inactive: 139% |
| Cc1ccc(CNC(=O)c2ccc(CS(=O)Cc3cccc(Cl)c3)o2)cc1 (stereo not given) | inactive: 80% |
| Cc1ccn2c(=O)cc(COc3cccc(NC(=O)Nc4cccc(Cl)c4C)c3)nc2c1 | inactive: 76% |

| SMILES | survival |
| --- | --- |
| COc1ccccc1NC(=O)C1=C(C)Nc2nc3ccccc3n2C1c1cccc(OC)c1OC (stereo not given) | inactive: 68% |
| CCN1CCN(C(=O)C2CCN(Cc3cc(Cl)ccc3O)CC2)CC1 | inactive: 107% |
| O=S(=O)(c1cccc2ccccc12)N1CCN(c2ccc(Cl)c(Cl)c2)CC1 | inactive: 145% |
| COc1ccc(NC(C)=O)cc1NC(=O)CN1CCN(c2ccc(F)cc2)CC1 | inactive: 72% |
| CCOc1cc(C(=O)NCC(c2ccc(N(C)C)cc2)N2CCOCC2)cc(OCC)c1OCC (stereo not given) | inactive: 78% |
| Cc1cc(Nc2cccc(C(F)(F)F)c2)nc2ccc(NC(=O)c3cccc(Cl)c3)cc12 | inactive: 90% |
| O=C(NCCCN1CCOCC1)c1ccc2c(c1)N(Cc1cccc(Cl)c1)C(=O)c1ccccc1S2 | inactive: 69% |
| O=C(Cn1cc(S(=O)(=O)c2ccccc2)c(=O)c2cc(Cl)ccc21)Nc1ccc2c(c1)OCO2 | inactive: 79% |
| CCOc1ccc(CNCc2c(C(=O)O)c(C)n(Cc3c(F)cccc3Cl)c2C)cc1OC | inactive: 82% |
| CCCCN(CCCNC(=O)c1cc(Nc2ccc(OC)c(OC)c2)nc2ccccc12)c1ccccc1 | inactive: 83% |
| Cc1ccc(-c2cn3c(n2)sc2cc(C(=O)NCCCc4ccccc4)ccc23)c(C)c1 | inactive: 72% |
| CC(C)c1ccc(S(=O)(=O)N2CCC(N3CCN(Cc4ccccc4)C(=O)C3=O)CC2)cc1 | inactive: 65% |
| C#CC1(OC(C)=O)C(C)CN(C)CC1C (stereo not given) | inactive: 104% |
| Cc1ccccc1Nc1c(-c2cccnc2)nc2ccc(Cl)cn12 | inactive: 81% |
| COc1ccc(C2=C(Nc3ccc(C)cc3C)c3ccccc3C2=O)cc1 | inactive: 76% |
| CCc1nn2c(=O)c(S(=O)(=O)Nc3ccc(Cl)cc3)c(C)nc2s1 | inactive: 107% |
| Cc1ccc2oc(=O)n(CCCOc3ccccc3Cl)c2c1 | active: -10% |
| Cc1cc(C)c(S(=O)(=O)NCC(c2ccc(N(C)C)cc2)N2CCOCC2)c(C)c1 (stereo not given) | inactive: 73% |
| COc1ccccc1-c1noc(-c2ccc(NCC3CCCO3)c([N+](=O)[O-])c2)n1 (stereo not given) | inactive: 103% |
| O=C(NCc1cccnc1)c1cn(Cc2ccccc2)nn1 | inactive: 98% |
| CCc1cccc(NC(=O)CN(C)S(=O)(=O)c2ccc3c(c2)CCCN3C(C)=O)c1 | inactive: 83% |
| CC(CCc1ccccc1)NC(=O)Cn1c(=O)nc(-c2ccccc2)c2ccccc21 (stereo not given) | inactive: 125% |
| CCOC(=O)c1cnc2c(C)c(Cl)ccc2c1Nc1ccc(N2CCOCC2)cc1 | inactive: 60% |

| SMILES | survival |
| --- | --- |
| O=C(NCc1ccc(F)cc1)C1(c2cccs2)CCOCC1 | inactive: 124% |
| Cc1ccc(OCC(=O)Nc2nnc(S(=O)(=O)N3CCCCCC3)s2)cc1 | inactive: 64% |
| COc1cc(Nc2nc3c(S(=O)(=O)c4ccc(C)c(C)c4)nnn3c3ccsc23)cc(OC)c1 | inactive: 94% |
| Oc1ccc(NCc2ccccc2OCc2ccc(Cl)cc2)cc1 | inactive: 72% |
| CCOC(=O)c1c(NC(=O)C2c3ccccc3Oc3ccccc32)sc(C)c1CC | inactive: 33% |
| CCn1c(=O)cc(OCC(=O)N(C)c2cc(Cl)ccc2C)c2ccccc21 | inactive: 62% |
| O=C(NCCO)c1nc2ccccc2s1 | inactive: 104% |
| COC(=O)c1ccccc1NC(=O)N1CCC(N2CCN(Cc3ccc(F)cc3)C(=O)C2=O)CC1 | inactive: 70% |
| CC(C)(C)C1CCc2nc(NC(=O)Cc3ccccc3)sc2C1 (stereo not given) | inactive: 62% |
| COc1ccc(NC(=O)CS(=O)CC(=O)NC2CCCc3ccccc32)cc1 (stereo not given) | inactive: 100% |
| O=C(c1cccs1)N(Cc1nc2sc3c(c2c(=O)[nH]1)CCCC3)C1CCCC1 | inactive: 104% |
| COc1ccccc1N1C(=O)N(CC(=O)C(C)(C)C)c2ccccc2S1(=O)=O | inactive: 82% |
| CSc1ccc(-c2nc3cccc(C)n3c2Nc2ccc(Cl)cc2)cc1 | inactive: 101% |
| CN(C)CCNC(=O)c1ccc(-c2nn(C)c(=O)c3ccccc23)cc1 | inactive: 125% |
| O=C1CN(C(=O)COc2ccc(Cl)cc2Cl)C(c2ccccc2)c2cc(F)ccc2N1 (stereo not given) | inactive: 60% |
| CCOc1ccc(CCNC(=O)c2nn(C)c3c2CSc2ccccc2-3)cc1 | inactive: 77% |
| COc1cccc(C(=O)Nc2nnc(S(=O)(=O)N3CCCC3)s2)c1 | inactive: 68% |
| Cc1ccc(Cn2cnc3nc4c(cc3c2=O)CC(C)CC4)cc1 (stereo not given) | active: -3% |
| CC(C)c1ccc(S(=O)(=O)c2cnc(SCC(=O)Nc3ccc4c(c3)OCCO4)[nH]c2=O)cc1 | inactive: 71% |
| O=C(O)c1ccc(NC(=O)c2cc(S(=O)(=O)N3CCCCC3)c(Cl)cc2Cl)cc1 | inactive: 136% |
| Cc1cccc(C(=O)NNc2ncnc3c2cnn3-c2ccc(C)cc2C)c1 | inactive: 124% |
| CCOc1ccccc1CNC(=O)CCCn1ccc2cc(S(=O)(=O)N3CCCC3)ccc21 | inactive: 76% |
| CCCNC(=O)CN1C(=O)CSc2ccc(S(=O)(=O)N3CCC(C)CC3)cc21 | inactive: 85% |

| SMILES | survival |
| --- | --- |
| Cc1ccc(Nc2c(C(C)C)c(C)c(C#N)c3nc4ccccc4n23)cc1 | inactive: 70% |
| O=C(CNCc1ccco1)Nc1ccccc1-n1cccc1 | inactive: 111% |
| CCC(C)NC(=O)CCCc1nnc2n(CC(C)C)c(=O)c3sccc3n12 (stereo not given) | inactive: 100% |
| COc1ccc2c(c1)CCc1c(C(=O)Nc3c(C)nn(Cc4ccccc4)c3C)noc1-2 | inactive: 92% |
| Cc1ccccc1-c1noc(-c2ccc(NCc3ccco3)c([N+](=O)[O-])c2)n1 | inactive: 82% |
| CCOc1ccc(NC(=O)c2cc(S(=O)(=O)NC3CCCCCC3)ccc2F)cc1 | inactive: 69% |
| CCOc1ccc(-n2c(=O)c3c(C)c(C)sc3n(CC(=O)NCCc3ccccc3)c2=O)cc1 | inactive: 87% |
| CCOc1ccccc1NC(=O)CSc1nccn1-c1cccc(C)c1 | inactive: 88% |
| Cc1ccc(NC(=O)/C=C\C(=O)N(c2ccc(C(C)C)cc2)C(C(=O)NCc2ccco2)c2ccc(F)cc2)cc1 (stereo not given) | inactive: 59% |
| COc1ccc2c(Sc3ccc(C)cc3)c(C(=O)NC(C)C)[nH]c2c1 | inactive: 85% |
| COCCCNC(=O)c1nn(-c2ccc(C)cc2)nc1CO | inactive: 86% |
| O=c1oc2ccccc2c(N2CCN(c3ccccc3F)CC2)c1CN1CCCC1 | inactive: 82% |
| Cc1ccc(S(=O)(=O)C(CNC(=O)C(=O)NCCc2ccccc2)c2cccs2)cc1 (stereo not given) | inactive: 136% |
| CCOc1ccc(C2CC(=O)c3c([nH]c(C(=O)OCC4CCCCC4)c3C)C2)cc1 (stereo not given) | inactive: 81% |
| CCCc1cc(=O)oc2cc(C)c3c(-c4ccccc4)coc3c12 | inactive: 66% |
| COc1cccc(NC(=O)C(Cc2ccccc2)NS(=O)(=O)c2ccc3c(c2)c(=O)n(C)c(=O)n3C)c1 (stereo not given) | inactive: 72% |
| Cc1cccc(CNC(=O)Cn2ccc3cc(S(=O)(=O)N4CCCCCC4)ccc32)c1 | active: -6% |
| Cc1ccc(NC(=O)CC2Nc3ccccc3NC2=O)cc1C (stereo not given) | inactive: 74% |
| O=C(CN1C(=O)CSc2ccc(S(=O)(=O)N3CCCC3)cc21)Nc1cccc(Cl)c1 | inactive: 95% |
| COc1ccc(CCNC(=O)c2ccc(Cn3c(=O)c4ccccc4n(CC(=O)C(C)(C)C)c3=O)cc2)cc1OC | inactive: 96% |
| COc1cc(NC(=O)CCn2nc(C)c(S(=O)(=O)N3CCCCC3)c2C)cc(OC)c1OC | inactive: 136% |
